# Measurements taken from PubChem BioAssay (Tox21).
# Where “and” joins values, the source holds several entries; their conditions need not be identical. Identical values can stand only once. Inconclusive results, whose numbers are uncertain, are shown with a selection of clear calls. Potencies of inconclusive entries are doubtful fits and often do not repeat. Calls of active or inactive are those of the source. Unless noted, calls follow the shape of the dose curve; as a rule, active = well fitted curve in the direction sought with a large enough effect in the repeat runs; inconclusive = weak or mixed curves; inactive = no such curve, though single readings can be large; an effect the other way counts as inactive or inconclusive.
# Target: Aromatase (Homo sapiens) (UniProt P11511)
# Assay: qHTS assay to identify aromatase inhibitors (AID 743083); also: nearly all actives have a fitted effect of over 55% in size
# Settings: MCF-7 aro ERE, testosterone-driven ERE luciferase, 24 h; activity, negative = inhibition: at 70.3 µM (top of the series)
# % is scaled to controls: 0 for no effect and ±100 for the full control effect; potency is read from the fitted curve at half-maximal effect; tags tell the direction and shape of the fitted curve or compound fluorescence and quenching.
# Sequence of UniProt P11511 (P11511 whole entry, looked up): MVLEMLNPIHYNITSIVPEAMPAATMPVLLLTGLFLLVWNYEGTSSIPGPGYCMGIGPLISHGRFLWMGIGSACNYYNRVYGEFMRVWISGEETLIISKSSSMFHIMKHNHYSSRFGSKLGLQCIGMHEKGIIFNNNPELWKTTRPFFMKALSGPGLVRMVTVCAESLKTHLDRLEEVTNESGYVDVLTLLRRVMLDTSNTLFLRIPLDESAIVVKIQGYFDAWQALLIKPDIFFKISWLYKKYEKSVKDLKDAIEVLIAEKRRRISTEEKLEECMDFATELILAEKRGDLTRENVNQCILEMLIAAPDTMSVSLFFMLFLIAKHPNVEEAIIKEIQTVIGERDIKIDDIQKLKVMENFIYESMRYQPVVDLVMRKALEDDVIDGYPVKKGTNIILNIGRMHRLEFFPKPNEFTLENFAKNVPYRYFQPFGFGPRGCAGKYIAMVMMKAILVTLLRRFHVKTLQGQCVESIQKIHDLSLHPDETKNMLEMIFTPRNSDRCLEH
SMILES,Potency,"activity, negative = inhibition"
COc1ccc(C=O)cc1,inactive,
COC(=O)/C=C(\C)OP(=O)(OC)OC,inconclusive: 68.6 µM [inhibitor],
CCOC(=O)C(Cl)C(C)=O (stereo unspecified),,inactive: -0.556% [at 95 µM]
COc1cc(CCN)cc(OC)c1OC,"inconclusive: 83.7 µM [inhibitor, single point]",

# Test system: not listed separately
# Assay: qHTS assay to identify aromatase inhibitors - cell viability counter screen (AID 743084);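 also: cells stimulated with testosterone during compound exposure; nearly all actives have a fitted effect of over 55% in size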
# Settings: MCF-7 aro ERE viability, CellTiter-Fluor, 24 h; activity change, negative = cytotoxicity: at 70.3 µM (top of the series) unless noted
SMILES,Potency,"activity change, negative = cytotoxicity"
CCCCN(CCCC)N=O,inactive,
C[N+](C)(C)CC(=O)O,inactive,
Nc1cc(Cl)cc(Cl)c1,,inconclusive: 30.5%
Nc1nc(N)c(N)c(N)n1,"inconclusive: 27.4 µM [rising, full curve]",
CC(C)(C)C(O)(CCc1ccc(Cl)cc1)Cn1cncn1 (stereo unspecified),"inconclusive: 61.9 µM [cytotoxic, single point]",
COC1CC(=C(c2cccs2)c2cccs2)C[N+](C)(C)C1 (stereo unspecified),,inactive: -2.28%
Cn1sc(Cl)cc1=O,"inconclusive: 77 µM [cytotoxic, single point]",
N#C/C=C/C#N,"inconclusive: 28.6 µM [cytotoxic, partial curve]",
CCCCOCC1CO1 (stereo unspecified),"inconclusive: 9.69 µM [rising, partial curve, poor fit]",
C=C(C#N)CCC#N,,inconclusive: 30.1%
O=C(NCO)NCO,"inconclusive: 0.953 µM [rising, full curve, poor fit]",

# Target: Aryl hydrocarbon receptor (Homo sapiens) (UniProt P35869)
# Assay: qHTS assay to identify small molecule that activate the aryl hydrocarbon receptor (AhR) signaling pathway (AID 743085); also: nearly all actives have a fitted effect of over 15% in size;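 as to activation: HG2L7.5c1 human HepG2 liver cells with stably integrated DRE-driven firefly reporter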
# Settings: HepG2 AhR-luc (HG2L7.5c1), luciferase, 24 h; series mostly up to 70.3 µM; activation: at the top concentration
# Procedure, shortened: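 Cell line HG2L7.5c1 (human hepatoma, 20× DRE-luc). Plated, 5 h 37C, compound/DMSO added, 24 h 37C. CellTiter-Fluor 30 min 37C → fluorescence; then ONE-Glo 30 min RT → luminescence.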
# Sequence of UniProt P35869 (P35869 whole entry, looked up): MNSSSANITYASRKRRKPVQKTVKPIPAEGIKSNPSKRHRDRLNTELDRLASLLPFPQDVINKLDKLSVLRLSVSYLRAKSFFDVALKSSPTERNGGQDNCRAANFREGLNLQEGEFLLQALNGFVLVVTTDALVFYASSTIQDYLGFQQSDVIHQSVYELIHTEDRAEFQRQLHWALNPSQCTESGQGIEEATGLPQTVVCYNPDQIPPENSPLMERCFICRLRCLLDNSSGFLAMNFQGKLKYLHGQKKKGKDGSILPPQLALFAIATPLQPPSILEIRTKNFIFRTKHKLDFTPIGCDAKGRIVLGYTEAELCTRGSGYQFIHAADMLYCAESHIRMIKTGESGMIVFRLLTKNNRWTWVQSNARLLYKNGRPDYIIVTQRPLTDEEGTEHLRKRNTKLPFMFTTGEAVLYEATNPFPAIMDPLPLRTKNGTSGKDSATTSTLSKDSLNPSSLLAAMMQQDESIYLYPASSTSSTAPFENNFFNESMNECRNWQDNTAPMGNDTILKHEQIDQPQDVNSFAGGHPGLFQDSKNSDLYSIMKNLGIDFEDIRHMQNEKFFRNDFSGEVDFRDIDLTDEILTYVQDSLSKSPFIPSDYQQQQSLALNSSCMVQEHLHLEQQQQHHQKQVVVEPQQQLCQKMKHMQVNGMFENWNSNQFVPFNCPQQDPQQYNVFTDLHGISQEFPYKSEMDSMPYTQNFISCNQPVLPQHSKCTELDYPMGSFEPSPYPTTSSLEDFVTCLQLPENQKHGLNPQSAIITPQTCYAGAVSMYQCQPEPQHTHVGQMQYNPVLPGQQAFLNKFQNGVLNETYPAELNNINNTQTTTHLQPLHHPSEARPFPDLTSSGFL
SMILES,Potency,activation
CCC(C(N)=O)N1CCCC1=O (stereo unspecified),"inconclusive: 33.5 µM [activator, partial curve, poor fit]",
c1cc2c3c(cccc3c1)CC2,inactive,
CCCCCCC#N,"inconclusive: 66.4 µM [activator, single point]",
COc1cc(OC)nc(NC(=O)NS(=O)(=O)c2ncccc2OCC(F)(F)F)n1,"inconclusive: 65.1 µM [activator, single point]",
O=C(NCc1cccnc1)Nc1ccc([N+](=O)[O-])cc1,"inconclusive: 2.43 µM [activator, full curve, poor fit]",
Nc1nc(N)c(N)c(N)n1,inconclusive: 61.4 µM [activator],
Nc1cccc2ccccc12,active: 27.5 µM and active: 27.3 µM,
O=C(CCl)c1ccccc1,,inactive: 3.67%
Cn1c(N)nc2c3cccnc3ccc21,active: 4.61 µM,
CCOC(=O)CBr,"inconclusive: 54.7 µM [activator, partial curve, poor fit]",
CC(=O)C(C)(C)C,"inconclusive: 56.6 µM [activator, partial curve, poor fit]",

# Test system: not listed separately
# Assay: qHTS assay to identify small molecule that activate the aryl hydrocarbon receptor (AhR) signaling pathway - cell viability counter screen (AID 743086); also: nearly all actives have a fitted effect of over 45% in size;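 as to viability change, negative = cytotoxic: HepG2 liver cells carrying the AhR DRE luciferase reporter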
# Settings: HepG2-AhR-luc viability, CellTiter-Fluor, 24 h; series mostly up to 70.3 µM; viability change, negative = cytotoxic: at the top concentration
# Procedure, shortened: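 HepG2-AhR-luc (HG2L7.5c1) cells, 4000/well, treated 24 h at 37 C with compound; viability measured as CellTiter-Fluor fluorescence after 30 min in the same wells as the luciferase read.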
row,SMILES,Potency
1,CN1[C@@H]2CC[C@H]1CC(OC(=O)c1cc(Cl)cc(Cl)c1)C2 (stereo partly specified),"inconclusive: 18.8 µM [falling, partial curve]"
2,O=[N+]([O-])O,inactive
3,CC(C)(C)C(O)(CCc1ccc(Cl)cc1)Cn1cncn1 (stereo unspecified),"inconclusive: 69.4 µM [falling, partial curve, poor fit]"
4,Nc1ccccc1,inactive
5,Cn1c(N)nc2c3cccnc3ccc21,"inconclusive: 65.2 µM [falling, partial curve, poor fit]"
6,Cc1cc(Cl)ccc1N,"inconclusive: 62.5 µM [falling, partial curve, poor fit]"

# Target: Peroxisome proliferator-activated receptor gamma (Homo sapiens) (UniProt P37231)
# Assay: qHTS assay to identify small molecule agonists of the peroxisome proliferator-activated receptor gamma (PPARg) signaling pathway (AID 743094; active = well fitted activation curve with a large enough effect in the signal ratio in the repeat runs, not every such curve was filed as active; inconclusive = weak or mixed curves, or effect the other way; inactive = no such curve, though single readings can be large or run the other way; the % refers to the signal ratio)
# Settings: HEK293H PPARg-UAS-bla, beta-lactamase FRET ratio, 17 h; activation: at 57 µM (top of the series) unless noted
# Procedure, shortened: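 Fluorescence-based beta-lactamase readout in HEK293H PPARg UAS-bla cells after 17 h compound exposure (37C) and 1 h B/G FRET substrate incubation at room temperature.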
# Sequence of UniProt P37231 (P37231 whole entry, looked up): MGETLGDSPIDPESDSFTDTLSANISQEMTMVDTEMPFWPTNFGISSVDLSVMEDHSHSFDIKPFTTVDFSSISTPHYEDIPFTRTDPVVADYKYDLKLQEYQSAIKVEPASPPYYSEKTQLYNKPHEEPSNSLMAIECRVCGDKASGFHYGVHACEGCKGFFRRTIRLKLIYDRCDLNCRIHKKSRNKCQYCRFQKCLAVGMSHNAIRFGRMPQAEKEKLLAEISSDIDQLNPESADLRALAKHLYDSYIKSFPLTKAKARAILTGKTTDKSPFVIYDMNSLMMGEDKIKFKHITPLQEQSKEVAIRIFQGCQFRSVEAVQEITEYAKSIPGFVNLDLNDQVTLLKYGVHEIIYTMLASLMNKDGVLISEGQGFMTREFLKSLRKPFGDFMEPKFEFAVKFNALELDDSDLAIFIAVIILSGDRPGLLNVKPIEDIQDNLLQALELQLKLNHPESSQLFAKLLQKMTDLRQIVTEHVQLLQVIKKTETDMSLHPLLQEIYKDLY
SMILES,activation,Potency
CCCCCCC#N,inconclusive: 4.25%,
Nc1cc(Cl)cc(Cl)c1,,inactive
COc1cc(OC)nc(NC(=O)NS(=O)(=O)c2ncccc2OCC(F)(F)F)n1,inactive: 1.37%,
O=C(NCc1cccnc1)Nc1ccc([N+](=O)[O-])cc1,inactive: -3.85%,
Nc1cccc2ccccc12,inconclusive: -11.1%,
CC(C)(C)C(O)(CCc1ccc(Cl)cc1)Cn1cncn1 (stereo unspecified),inconclusive: -12.2%,"inconclusive: 62.4 µM [rising, partial curve, poor fit]"
COC1CC(=C(c2cccs2)c2cccs2)C[N+](C)(C)C1 (stereo unspecified),inactive: 1.76%,
O=C(CCl)c1ccccc1,inconclusive: 12.2% [at 78.9 µM],"inconclusive: 54.9 µM [rising, single point]"
O=C1CCCCC1Cl (stereo unspecified),inconclusive: 0.792% [at 78.9 µM],
N#C/C=C/C#N,inconclusive: -19.4% [at 78.9 µM],
CCCCN(CCCC)C(=S)S,inactive: -1.88%,
CCCOC(=O)c1ccccc1C(=O)OCCC,inconclusive: 1.41% [at 78.9 µM],
